The whole screen tested about 320,000 compounds, of which about 200 (0.062%) were called active. The shares of active, inactive and inconclusive entries below differ from those in the screen. Calls come from the whole dose curve; as a rule, active = well fitted activation curve with a large enough effect; inconclusive = small, poorly fitted or top-dose-only effect; inactive = no such curve, though single readings can be large or run the other way. No potency is given beside an inconclusive call; the fits are too rough.
Assay: qHTS assay for re-activators of p53 using a Luc reporter; note: nearly all actives have a fitted effect of over 45% in size
Details: H1299 p53-A138V BP100-luciferase reporter, luminescence, 24 h; series mostly up to 92.2 µM
Source text: The p53 tumor suppressor plays a key role in suppression of tumorigenesis and in human carcinogenesis. It is frequently found inactivated in human cancers, mainly by point mutation. These point mutations are found in a wide variety of human cancers and a majority of them affect the DNA binding domain of the protein. The point mutations either alter native p53 conformation or abolish DNA contact. Additionally, cancer cells with p53 mutations are more resistant to chemo-radiation therapies. In order to find activators to reactivate this important protein, a cell-based screen for p53-dependent luciferase-reporter expression was developed. A p53-null H1299 lung cancer cell line was stably co-transfected with a temperature sensitive p53 mutant, p53-A138V, and a p53-responsive BP100-luciferase reporter. This cell model has previously been characterized in a gene chip profiling experiment for p53 activation. By lowering the culture temperature from 37 deg C (mutant p53 conformation) to 32 deg C (w.t. p53 conformation), a 30-60 fold increase in activation of luciferase activity is observed. At assay temperate, 37 deg C, basal reporter expression is very low and after the addition of detection reagent, a luminescent read-out is carried out. NIH Chemical Genomics Center [NCGC] NIH Molecular Libraries Probe Production Centers Network [MLPCN] MLPCN Grant: DA031088-01A1 Assay Provider (PI): Yi Sung, University of Michigan at Ann Arbor
5ul of 1000 cells per well are dispensed in all wells except column 4, into white solid-bottom TC-treated Kalypsys plates. The cells are kept in Opti-MEM and supplemented with 10% FBS and dispensed using a Multidrop (Thermo). Then using the Kalypsys pin-tool, 23nl of compounds are pinned. The compounds are starting concentration at 10mM, with 1:5 dilution, 4 points, and the control compound nocodazole is pinned in column 1 at 25mM, 1:3 dilution, in duplicate, 25mM nocodazole is pinned in column 2. Please note, all concentrations are working concentrations. 5ul of 1pM purified luciferase enzyme is dispensed using the Kalypsys dispenser in column 4. Plates are incubated for 24 hrs at 37 deg C, 5% CO2, and 95% humidity. Then 4ul of the detection reagent Amplite (ABD Bioquest) is added using the Kalypsys dispenser. Plates are incubated for 10 min at ambient room temperature and are then read on the ViewLux (Perkin Elmer) using a clear filter for a luminescent read-out.
With `O=C(O)c1cc(-c2ccc(/C=N/NC(=S)Nc3ccccc3)o2)ccc1Cl` the Potency was “inactive”. For `CC(NC(=O)COc1cccc(Br)c1)C(=O)O` (configuration not stated), the Potency was “inactive”. For `COc1cccc(C(=O)CC(=O)C(=O)Nc2cc(OC)ccc2OC)c1`, the Potency was “inactive”. In the case of `c1ccc(-c2nnc(CSc3nncs3)o2)cc1`, the Potency is reported as inconclusive [activator, partial curve, poor fit]. With `O=C(NCCSc1ccccc1)c1ccccc1` the Potency was inconclusive [activator, partial curve, poor fit]. With `CC(C)C(=O)Nc1nnc(-c2ccccc2)o1` the Potency was “inactive”. For `Cc1cc(C(=O)COC(=O)C2=COCCO2)c(C)n1-c1ccc2c(c1)OCO2`, the Potency was inconclusive [activator, partial curve, poor fit]. With `Cc1csc(CN(C)C(=O)CC2C(=O)NCCN2Cc2ccc(F)c(F)c2)n1` (configuration not stated) the Potency was inconclusive [activator, single point]. For `c1ccc2c(c1)NC1(CCCC1)n1c-2nc2ccccc21`, the Potency was inconclusive [activator, partial curve, poor fit]. With `O=C(Nc1ccc(C(=O)N2CCOCC2)cc1)Nc1cccc(Cl)c1` the Potency was inconclusive [activator, full curve, poor fit]. In the case of `O=C1/C(=C/c2cccnc2)SC(=S)N1c1ccc(F)cc1`, the Potency is reported as inconclusive [activator, partial curve, poor fit]. In the case of `CCC(=O)/C(=C(/O)c1ccccc1)c1nc2ccccc2[nH]1`, the Potency is reported as inconclusive [activator, single point]. In the case of `COC(=O)c1ccc(NC(=O)c2ccc[n+]([O-])c2)cc1`, the Potency is reported as “inactive”. In the case of `Cc1cc(C)n(C(=O)CNc2ccc(C)c(C)c2)n1`, the Potency is reported as inconclusive [activator, partial curve, poor fit]. With `COc1ccc2[nH]c(=O)c(CN(CCc3ccccc3)C(C)=O)cc2c1` the Potency was “inactive”. For `COc1ccc(-c2cc(C(=O)OCC(=O)c3cccc([N+](=O)[O-])c3)c3cc(C)ccc3n2)cc1`, the Potency was “inactive”. In the case of `CN1CCN(CCC(=O)Nc2ccccc2)CC1`, the Potency is reported as “inactive”. In the case of `Cc1c(C(=O)Nc2ccc3c(c2)OCCO3)oc2ccc(Br)cc12`, the Potency is reported as inconclusive [activator, partial curve, poor fit]. In the case of `O=C(O)CCCc1nc2ccccc2s1`, the Potency is reported as “inactive”. With `Cc1c(NC(=O)Nc2ccc(Cl)cc2Cl)c(=O)n(-c2ccccc2)n1C` the Potency was inconclusive [activator, single point]. In the case of `Cc1cc(N2CCOCC2)n2ncc(-c3ccc(Cl)cc3)c2n1`, the Potency is reported as inconclusive [activator, full curve, poor fit]. With `CCOC(=O)c1c(NC2OC(=O)c3c2ccc(OC)c3OC)sc(C(=O)OC(C)(C)C)c1C` (configuration not stated) the Potency was inconclusive [activator, partial curve, poor fit]. For `CCc1ccc(Nc2n[n+](-c3ccccc3)c(-c3ccc(SC)cc3)s2)cc1`, the Potency was “inactive”. In the case of `COc1ccc2c(C)cc(=S)[nH]c2c1`, the Potency is reported as “inactive”. In the case of `COc1ccc([N+](=O)[O-])cc1NC(=S)NC(C)=O`, the Potency is reported as “inactive”. For `O=C(Nc1ccc(O)cc1)c1ccc2c(c1)C(=O)N(N1C(=O)c3ccccc3C1=O)C2=O`, the Potency was inconclusive [activator, single point]. For `Cc1cc(C(=O)N/N=C/c2ccc([N+](=O)[O-])o2)c(C)o1`, the Potency was “inactive”. For `Cc1ccsc1/C=C/c1ccc2cccc(O)c2n1`, the Potency was active: 39.8 µM. For `O=C(c1ccco1)N(CC1CCCO1)c1nc(-c2ccccc2)cs1` (configuration not stated), the Potency was inconclusive [activator, single point]. For `Cc1nc2c(-c3ccc(Cl)cc3)cnn2c(N)c1-c1ccc(F)cc1`, the Potency was inconclusive [activator, full curve, poor fit]. With `O=C(Cc1ccc(F)cc1)NCCc1ccccc1` the Potency was “inactive”. For `CC1(C)CC(=O)c2sc(N3CCCCC3)nc2C1`, the Potency was inconclusive [activator, partial curve, poor fit]. In the case of `O=C(NCCc1ccc2c(c1)OCCO2)c1cccc(F)c1`, the Potency is reported as inconclusive [activator, partial curve, poor fit]. With `O=C(Nc1ncccc1Cl)c1cc2ccccc2o1` the Potency was inconclusive [activator, partial curve, poor fit]. For `O=C(Nc1nccs1)c1ccc2c(=O)n3c(nc2c1)CCCCC3`, the Potency was inconclusive [activator, partial curve]. With `CCCc1noc(-c2ccc(-c3ccccc3)cc2)n1` the Potency was inconclusive [activator, partial curve, poor fit]. With `c1ccc(Cn2nnc3c(N4CCN(Cc5ccc6c(c5)OCO6)CC4)ncnc32)cc1` the Potency was “inactive”. For `Cc1cc(C)nc(NC(=O)/C=C/c2ccccc2Cl)c1`, the Potency was inconclusive [activator, partial curve, poor fit]. With `CN(C)CCNC(=O)c1cc2sc3ccccc3c2s1` the Potency was inconclusive [activator, partial curve, poor fit]. With `CCCn1c(C)cc(/C=C(\C#N)C(=O)OCC(=O)Nc2cccc(S(N)(=O)=O)c2)c1C` the Potency was inconclusive [activator, full curve, poor fit]. In the case of `COc1ccc(/C=C2\N=C(C)OC2=O)cc1OC(C)=O`, the Potency is reported as “inactive”. With `NS(=O)(=O)c1ccc2nc(NC(=O)C3=COCCO3)sc2c1` the Potency was inconclusive [activator, full curve, poor fit]. In the case of `Cc1ccc2nc(N(CCN(C)C)C(=O)C3=COCCO3)sc2c1`, the Potency is reported as inconclusive [activator, partial curve, poor fit]. With `COc1ccc(C(=O)Oc2ccc(/C=N/O)cc2)cc1` the Potency was “inactive”. For `COc1cc2ccccc2cc1C(=O)NC1CCC(C)CC1` (configuration not stated), the Potency was inconclusive [activator, full curve, poor fit]. For `COc1cc(CNc2ccc(CNc3ncn[nH]3)cc2)ccc1OCc1ccccc1`, the Potency was inconclusive [activator, partial curve, poor fit]. In the case of `O=C(NC(=S)NC1CCCCCC1)c1cncc(Br)c1`, the Potency is reported as inconclusive [activator, partial curve, poor fit]. In the case of `CC(C)(C)n1ncc2c(=O)n(CC(=O)Nc3ccccc3)cnc21`, the Potency is reported as inconclusive [activator, single point]. For `Cc1cc(C)cc(NC(=S)NCc2ccncc2)c1`, the Potency was “inactive”. For `COc1ccc(S(N)(=O)=O)cc1C(=O)NNC(=O)CN(C)S(=O)(=O)c1ccc(Cl)cc1`, the Potency was “inactive”. With `CCN(c1ccccc1)S(=O)(=O)c1ccc(Cl)c(NC(=O)Nc2ccc(Cl)cc2C#N)c1` the Potency was inconclusive [activator, single point]. With `Cc1occc1C(=O)NC1CCCCCCC1` the Potency was inconclusive [activator, partial curve, poor fit]. With `CCn1cc(SCC(=O)N2CCOCC2)c2ccccc21` the Potency was inconclusive [activator, single point]. For `CCC(C)n1c(NC(=O)c2ccccc2)c(C#N)c2nc3ccccc3nc21` (configuration not stated), the Potency was “inactive”. In the case of `CCN(CC)C(=O)c1[nH]cnc1C(=O)N[C@H](C)c1ccccc1`, the Potency is reported as inconclusive [activator, full curve, poor fit]. With `CCN1CCN(C(=O)CSc2ccc(C)cc2)CC1` the Potency was inconclusive [activator, partial curve, poor fit]. In the case of `Cc1nc(N2CCC3(CC2)OCCO3)c2nnn(Cc3ccccc3F)c2n1`, the Potency is reported as inconclusive [activator, single point]. In the case of `NC(=O)C1CCN(C(=O)c2ccc(-c3ccccc3Cl)o2)CC1`, the Potency is reported as inconclusive [activator, partial curve, poor fit]. In the case of `CC1CC(C)CN(CCOc2ccc(Br)cc2)C1` (configuration not stated), the Potency is reported as “inactive”. With `C/C(CC(=O)NCc1ccc(Cl)cc1)=N\NC(=O)c1ccccc1F` the Potency was inconclusive [activator, partial curve, poor fit]. For `COc1ccc(-n2ncc3c(NCc4ccco4)ncnc32)cc1`, the Potency was inconclusive [activator, partial curve, poor fit]. For `OC(COc1ccccc1Br)CN1CCNCC1` (configuration not stated), the Potency was inconclusive [activator, partial curve, poor fit]. For `CCC(=O)Nc1ccc2c(c1)Cc1cc(NC(=O)CC)ccc1-2`, the Potency was “inactive”. In the case of `NC(=O)NOCc1ncc(C(F)(F)F)cc1Cl`, the Potency is reported as “inactive”. For `O=[N+]([O-])c1ccc(-c2cc(-c3ccc(Cl)cc3)n[nH]2)cc1`, the Potency was inconclusive [activator, single point]. With `O=C(NCCN1C(=O)S/C(=C/c2cccnc2)C1=O)C1=NN(c2ccccc2)C(=O)CC1` the Potency was inconclusive [activator, partial curve, poor fit]. In the case of `COCCNC(=O)c1cc2c(-c3ccccc3F)nn(C)c2s1`, the Potency is reported as “inactive”. In the case of `COc1ccc(NC(=O)c2cccc(NC(=O)c3ccccc3)c2)c(OC)c1`, the Potency is reported as “inactive”. With `CC(=O)Nc1ccc(S(=O)(=O)N(C)S(=O)(=O)c2ccc(F)cc2)cc1` the Potency was “inactive”. With `CCOc1ccc(OCC)c(Nc2cc(C)nc3ncnn23)c1` the Potency was “inactive”. With `Cc1ccc(C)c(OCc2cc(C(=O)N3CCN(c4ccccc4)CC3)no2)c1` the Potency was inconclusive [activator, partial curve, poor fit]. With `Cc1ccc(/C=C/C(=O)Nc2ncc(C)s2)o1` the Potency was inconclusive [activator, partial curve, poor fit].
Potency is the fitted concentration of half-maximal effect; tags give direction and shape of the fitted curve.
